# Data: PubChem BioAssay AID1345083 (National Center for Advancing Translational Sciences (NCATS), 2018)
# The campaign covered roughly 94,000 compounds. About 6,200 (6.6%) were called active. The inconclusive results got no clear call from the source; some entries with a clear call stand among them for comparison. The call rests on the fitted dose curve; in most records, active means well fitted inhibition curve with a large enough effect; inconclusive means small, poorly fitted or top-dose-only effect; inactive means flat fitted curve, though single readings scatter. Potencies of inconclusive entries are doubtful fits and often do not repeat.
# Test: Cytotoxic Profiling in HEK 293 Cell Line of Diverse Libraries Using Quantitative High-Throughput Screening; further: nearly all actives have a fitted effect of over 60% in size
# Settings: HEK 293 viability, ATP luminescence (CellTiter-Glo), 48-72 h; series mostly up to 115 µM
# Procedure, shortened: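 HEK 293 seeded at 250 cells/well receive compound via pintool. After 48 or 72 hr at 37 degree Celsius, 5% CO2 and 95% humidity, CellTiter-Glo is dispensed and luminescence read following 10 min at room temperature.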
# Potency means the concentration at half of the fitted maximal effect; tags describe the fitted curve by direction and shape.
row,Structure (SMILES),Potency
1,CCCN(CC1CCOC1)S(=O)(=O)c1ccc(F)cc1 (stereo not given),inactive
2,Cc1cc(C)cc(-c2ccc(CN3CCCC3C(=O)N3CCCC(C)C3)cc2)c1 (stereo not given),active: 35.5 µM
3,CCCN1CCC(N2CCCC(Cc3ccccc3)(C(=O)OCC)C2)CC1 (stereo not given),"inconclusive: 50.1 µM [inhibitor, partial curve, poor fit]"
4,O=S(=O)(Cc1ccccc1)N1CCC(N2CC(OCC3CC3)C23CCOCC3)CC1 (stereo not given),"inconclusive: 100 µM [inhibitor, single point]"
5,CN(Cc1ccccc1)c1ccc2nnc(-c3ccccn3)n2n1,"inconclusive: 63.1 µM [inhibitor, partial curve, poor fit]"
6,COc1cccc(CN2CCc3c(cc(C(=O)Nc4cccc(C)c4C)n3C)C2)c1,active: 39.8 µM
7,CC(C)N1C(=O)C(CC(=O)N(C)Cc2cccnc2)=C2CCCCC21 (stereo not given),inactive
8,Cc1cc(C)cc(-c2ccc(CN3CCCC(NC(=O)c4ccccc4Cl)C3)cc2)c1 (stereo not given),"inconclusive: 50.1 µM [inhibitor, partial curve, poor fit]"
9,COC(=O)CNC(=O)c1nc(-c2cccnc2)c2ccccn12,inactive
10,CC1CCCC(C)N1C(=O)c1ccc2nc(-c3ccnc(Cl)c3)oc2c1 (stereo not given),"inconclusive: 79.4 µM [inhibitor, partial curve, poor fit]"
11,Cc1ccc(-c2nnc(C3CN(C(=O)c4ccc(C)s4)CC34CCOCC4)o2)cc1 (stereo not given),"inconclusive: 50.1 µM [inhibitor, partial curve, poor fit]"
12,COc1ccc2[nH]c3c(c2c1)CCN(C)C31CCN(C(=O)c2cc(C)nn2C)CC1,"inconclusive: 79.4 µM [inhibitor, partial curve]"
13,CCN1CCN(C(=O)C2CCc3nnc(-c4cccc(C(F)(F)F)c4)n32)CC1 (stereo not given),inactive
14,COc1cc(C(=O)NC2CCN(c3cc(-c4ccc(F)cc4)[nH]n3)C2)cc(OC)c1OC (stereo not given),"inconclusive: 56.2 µM [inhibitor, partial curve, poor fit]"
15,O=C1NC2(CCCN([S+](=O)([O-])c3cccs3)C2)Oc2ccccc21 (stereo not given),"inconclusive: 50.1 µM [inhibitor, partial curve, poor fit]"
16,CC(C)(C)C(=O)N1CCCC1C(=O)N1CCC(c2ccccc2)CC1 (stereo not given),"inconclusive: 79.4 µM [inhibitor, single point]"
17,COC(=O)c1cc2n(n1)CCN(C(=O)c1cc(-c3ccccc3O)n[nH]1)C2,"inconclusive: 44.7 µM [inhibitor, partial curve]"
18,CC1CCC2(CC1)NC(=O)N(CC(=O)Nc1ccc(Br)cc1F)C2=O (stereo not given),"inconclusive: 35.5 µM [inhibitor, partial curve]"
19,COc1ccccc1Nc1ccnc(N2CCCC(C(=O)NC3CCCC3)C2)n1 (stereo not given),"inconclusive: 35.5 µM [inhibitor, partial curve, poor fit]"
20,COc1ccc(NC(=O)N2CCc3c(C(=O)Nc4ccccc4)cccc32)cc1,"inconclusive: 25.1 µM [inhibitor, partial curve]"
21,COCCNC(=O)c1cc(C2CC2)nc2c1c(C1CCNC1)nn2C (stereo not given),inactive
22,O=C(NC1CCN(CCn2nc3n(c2=O)CCCC3)C1)c1ccccc1F (stereo not given),inactive

row,Structure (SMILES),Potency
1,Cc1ccc(CNC(=O)N2CCC(OCc3noc(C4CCCO4)n3)CC2)cc1 (stereo not given),inactive
2,CCn1cc(S(=O)(=O)N2CCC(CCOc3ccccc3OC)C2)cn1 (stereo not given),"inconclusive: 89.1 µM [inhibitor, single point]"
3,COc1cccc(CNC(=O)c2ccc3nnc(-c4ccoc4)n3c2)c1,"inconclusive: 100 µM [inhibitor, partial curve, poor fit]"
4,COc1ccc(NC(=O)Nc2cccc(-c3ccc(N4CCOCC4)nn3)c2)cc1Cl,active: 22.4 µM
5,COc1ccc(-c2cc3nc4c(c(=O)n3[nH]2)CN(C(=O)CN(C)S(=O)(=O)c2cnc[nH]2)CC4)cc1,"inconclusive: 11.2 µM [inhibitor, partial curve, poor fit]"
6,Cc1ccoc1C(=O)N1CC[C@@H](c2sccc2C)[C@H](O)C1,inactive
7,CN1C(=O)[C@@H]2C[C@@H](CN2CC2CC2)Oc2ccccc21,"inconclusive: 112 µM [inhibitor, partial curve, poor fit]"
8,CC(=O)N1CCCC(C(=O)N2CCCC(c3nc4ccncc4[nH]3)C2)C1 (stereo not given),inactive
9,Cc1nnc(-c2cc(-c3cccc(F)c3)ccn2)n1CCc1ccccc1,"inconclusive: 70.8 µM [inhibitor, partial curve, poor fit]"
10,O=C(C1CCOCC1)N1CC(c2nnc(-c3ccncc3)o2)C2(CCOCC2)C1 (stereo not given),inactive
11,COc1ccc(NC(=O)C2CCN(C(=O)c3ncn4c3COC(c3ccccc3)C4)CC2)cc1Cl (stereo not given),inactive
12,COc1ccccc1-c1cccc(CN2CCCC(C(=O)N3CCCCC3)C2)c1 (stereo not given),active: 79.4 µM
13,Cc1ccc(C2=NC3(CCN(C(=O)c4c[nH]c5ccccc45)CC3)ON2)cc1,"inconclusive: 89.1 µM [inhibitor, single point]"
14,COc1ccc(NC(=O)CN2C(=O)NC(c3ccc(Cl)cc3)C3=C2COC3=O)c(OC)c1 (stereo not given),"inconclusive: 44.7 µM [inhibitor, partial curve, poor fit]"
15,COc1ccc2cnn(CC(=O)NC3CCCc4c3[nH]c3ccccc43)c(=O)c2c1OC (stereo not given),"inconclusive: 50.1 µM [inhibitor, partial curve, poor fit]"
16,COCCOCc1nc(C2CCN(C(=O)NCc3ccccc3)CC2)no1,inactive
17,O=C1CCN(CC(O)CC(F)(F)F)c2ccc(F)cc2CN1C1CCCC1 (stereo not given),"inconclusive: 31.6 µM [inhibitor, partial curve, poor fit]"
18,COc1ccc2ccc(OCc3nc(C(=O)NCc4csc(N)n4)co3)cc2c1,"inconclusive: 44.7 µM [inhibitor, partial curve, poor fit]"
19,COc1ccc(OC)c(NC(=O)Cn2c(=O)n(-c3cccc(C)c3)c(=O)c3c2cc(C)n3C)c1,"inconclusive: 89.1 µM [inhibitor, single point]"
20,Cc1nn2c(c1-c1ccccc1[S+](C)(=O)[O-])N(Cc1ccccc1F)CCC2,"inconclusive: 63.1 µM [inhibitor, full curve, poor fit]"
21,COc1ccc(CCNC(=O)c2c(C)noc2-c2ccc(OC(F)(F)F)cc2)cc1OC,"inconclusive: 44.7 µM [inhibitor, partial curve, poor fit]"
22,COc1ccc(C(CC(=O)N2CCCC2)c2cn(Cc3ccccc3)c3ccccc23)cc1OC (stereo not given),"inconclusive: 39.8 µM [inhibitor, partial curve]"

row,Structure (SMILES),Potency
1,CC(C)CN1C(=O)CO[C@H](c2ccc(NC(=O)C3CCCC3)cc2)[C@H]1CO,"inconclusive: 100 µM [inhibitor, partial curve]"
2,O=C1N(Cc2ccc(F)cc2)C[C@H]2CN(Cc3cnc4ccccc4c3)CCN12,"inconclusive: 89.1 µM [inhibitor, partial curve, poor fit]"
3,CSc1cccc(NC(=O)Cn2c(N3CCN(c4ccccc4)CC3)nc(C)cc2=O)c1,"inconclusive: 50.1 µM [inhibitor, partial curve, poor fit]"
4,O=C(c1nc(-c2cccc(C(F)(F)F)c2)c2ccccn12)N1CCCC1,active: 39.8 µM
5,CCOc1ccc(CC(=O)N2CCC3(CC2)N=C(c2ccccc2)NO3)cc1,"inconclusive: 89.1 µM [inhibitor, single point]"
6,COc1ccccc1C(=O)NCCC1CCN(C(=O)Nc2ccc(C)cc2)CC1,"inconclusive: 89.1 µM [inhibitor, single point]"
7,O=C(CCC1CCN(S(=O)(=O)c2ccccc2)CC1)NC1CCCC1,"inconclusive: 89.1 µM [inhibitor, single point]"
8,CNC(=O)c1cn2cc(-c3ccc(F)cc3)sc2n1,"inconclusive: 50.1 µM [inhibitor, partial curve, poor fit]"
9,COc1ncccc1-c1cc(-c2cccnc2)c2cncn2c1,"inconclusive: 100 µM [inhibitor, partial curve]"
10,CC(=O)Nc1ccc(C(=O)N2CCc3cn(CC(C)C)c4cccc(c34)C2)cc1,"inconclusive: 79.4 µM [inhibitor, partial curve, poor fit]"
11,CCCn1nc(C)cc1CN(CC)C(=O)C1CCN(c2cnn(C)c(=O)c2)C1 (stereo not given),inactive
12,COCCOC1CCN(C(=O)CCc2c[nH]c3ccccc23)CC1,"inconclusive: 89.1 µM [inhibitor, single point]"
13,CN(C(=O)c1cc2ccccc2oc1=O)C1CCCN(CCCc2ccccc2)C1 (stereo not given),"inconclusive: 25.1 µM [inhibitor, full curve]"
14,C=CCN(Cc1ccccc1OCC)C(=O)c1ccc(N(C)S(C)(=O)=O)cc1,"inconclusive: 89.1 µM [inhibitor, single point]"
15,Cc1nsc(NC(=O)N2CCC(N)CC2)n1,inactive
16,CC(C)c1noc(-c2ccn3c(CNC(=O)Cc4ccc(F)cc4)nnc3c2)n1,"inconclusive: 100 µM [inhibitor, single point]"
17,COc1ccc(C(=O)N2CCC3(CC2)NC(=O)N(Cc2ccccc2)C3=O)cc1F,"inconclusive: 28.2 µM [inhibitor, full curve]"
18,CC(C)c1nc(-c2ccc(OC3CCN(C(=O)C4(c5ccccc5)CC4)C3)cc2)no1 (stereo not given),active: 44.7 µM
19,O=C(NC1CCN(c2ccc3nnc(C4CC4)n3n2)C1)c1ccncc1 (stereo not given),inactive
20,O=C(NCc1ccc2c(c1)OCO2)c1nc(-c2ccc(Cl)cc2Cl)c2ccccn12,active: 31.6 µM
21,Cc1cc(NC(=O)c2ccc3c(c2)N(C)C2CCCCCN2C3=O)ccc1Br (stereo not given),"inconclusive: 44.7 µM [inhibitor, partial curve, poor fit]"
